The structures appear in SMILES notation. Among all 48,000 compounds or so, about 1,200 (2.5%) were called active. Not shown: some 2% with an inconclusive outcome.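 The calls were made as follows: active = activation of at least 60% and not above a set upper limit (about 1 call in 100 departs from these limits); inconclusive = activation of 40% to 60%, or above that upper limit; inactive = activation under 40%.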 This is one part of the list.

UniProt O75388, sequence (O75388 whole entry, looked up, the tested form may be a part): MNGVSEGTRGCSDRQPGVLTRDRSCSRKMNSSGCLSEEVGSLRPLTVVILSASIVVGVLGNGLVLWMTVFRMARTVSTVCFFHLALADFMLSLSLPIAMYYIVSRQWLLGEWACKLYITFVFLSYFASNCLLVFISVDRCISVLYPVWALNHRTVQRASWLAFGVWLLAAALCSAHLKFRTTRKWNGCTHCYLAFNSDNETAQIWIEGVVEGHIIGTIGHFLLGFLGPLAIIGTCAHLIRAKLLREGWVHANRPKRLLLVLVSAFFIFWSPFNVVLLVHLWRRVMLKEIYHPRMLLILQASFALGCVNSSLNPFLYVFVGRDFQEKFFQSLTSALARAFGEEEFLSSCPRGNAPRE

The target of the assay is Probable G-protein coupled receptor 32 (Homo sapiens) (UniProt O75388). Put plainly: qHTS for Agonists of Human Resolvin D1 Receptor DRV1. Also: 0% is about no effect. The note with it: CHO-K1 GPR32 beta-arrestin PathHunter luminescence, 90 min; at 76.9 µM; stronger effect = higher value; zero percent set by DMSO-only wells. In short, it runs like this:
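Agonism was scored by beta-Gal fragment complementation (chemiluminescent read, 1 h detection at ambient temperature) reporting beta-arrestin binding to GPR32 in engineered CHO-K1 cells. Compound treatment lasted 90 min at 37 C, normalized to a DMSO basal control.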
Background: Quantitative high-throughput screening tests each substance at several concentrations.
Consider `Cc1ccc(NC(=O)Cn2c(=O)oc3cc(S(=O)(=O)N4CCCCCC4)ccc32)cc1Cl`, for which the activation was inactive: 36%.
As to `CC(C)C(NS(=O)(=O)c1ccc2c(c1)oc(=O)n2C)C(=O)NCCc1ccc(Cl)cc1` (configuration not stated), the activation is inactive: 13.6%.
`CCOc1ccc(Nc2c(S(=O)(=O)c3ccccc3)cnc3ccccc23)cc1`: the activation is inactive: -52.2%.
The result for `Cc1ccc2cccc(NC(=O)c3ccc(-c4cccc(Cl)c4)o3)c2n1` reads inactive: 10.6%.
`CCCN(CCC)C(=O)c1cc2c(=O)n3cccc(C)c3nc2n1C`: the activation is inactive: -16.5%.
Consider `Cc1ccc(NC(=O)c2nc(S(C)(=O)=O)ncc2N(Cc2ccco2)Cc2ccco2)cc1C`, for which the activation is inactive: -14.6%.
The result for `Cc1ccc(NC(=O)c2c(C)oc3ccc(O)c(CN4CCCCC4)c23)c(C)c1` reads inactive: -1.5%.
The result for `Cc1ccc(-c2nnc(Nc3ccc(S(N)(=O)=O)cc3)c3ccccc23)cc1S(=O)(=O)N1CCCCC1` reads inactive: 12.5%; that for `CCC(=O)N1CCc2cc(Br)cc(S(=O)(=O)CCC(=O)N(CC)Cc3ccccc3)c21`, inactive: -11.3%; that for `CCOCCCNC(=O)C(c1ccc(Cl)cc1)N(Cc1cccs1)C(=O)c1ccc(NC(C)=O)cc1` (configuration not stated), inactive: -2.65%.
The result for `Cc1ccc(NC(=O)CN2C(=O)C3(SCC(=O)N3c3ccc(F)c(F)c3)c3ccccc32)c(C)c1` (configuration not stated) reads inactive: -11.1%.
Regarding `CC(C)(Oc1ccc(Cl)cc1)C(=O)Nc1nc2ccc(S(C)(=O)=O)cc2s1`, the activation is inactive: 13.7%.
The result for `CN(C)c1ccc(C(CNC(=O)c2c(F)cccc2Cl)N2CCOCC2)cc1` (configuration not stated) reads inactive: -5.73%; that for `COc1ccc(-n2c(=O)c3c4c(sc3n3c(SCCC(C)C)nnc23)COC(C(C)C)C4)cc1` (configuration not stated), inactive: -16.1%; that for `CC(=O)N1CCc2cc(CNS(=O)(=O)c3ccc(Cl)s3)ccc21`, inactive: 3.2%.
The result for `COc1ccc(Cl)cc1NC(=O)NCC1CCN(Cc2ccccc2F)CC1` reads inactive: -10.4%.
In the case of `CCOc1ccc(OCC)c(NS(=O)(=O)c2cc(-c3onc(C)c3C)ccc2OC)c1`, the activation was inactive: -17.4%.
As for `COc1cc(OC)cc(C(=O)Nc2ccc3oc(-c4cccc5c(Br)cccc45)nc3c2)c1`, the activation was inactive: -10.6%.
The result for `CN1C(=O)C2(SCC(=O)N2c2ccc(F)cc2)c2ccccc21` (configuration not stated) reads inactive: 2.31%; that for `COc1cc(NC(=O)c2c(C)oc3ncnc(N4CCCCC4)c23)cc(OC)c1`, inactive: -33.5%; that for `CN(Cc1ccccc1)C(=O)c1cn(C)c2ccc(S(=O)(=O)N(C)C3CCCCC3)cc2c1=O`, inactive: -21.5%.
The result for `CCCS(=O)(=O)c1nc(S(=O)(=O)c2ccc(C)cc2)c(NCc2ccccc2)s1` reads inactive: -18.6%.

For the origin of these results see PubChem BioAssay AID1346428 (National Center for Advancing Translational Sciences (NCATS), 2018).
